Reference: the supplement of paper PMC4723716
Over roughly 3,600 compounds, “viability index relative to DMSO control” has its median near 0.81; the lowest 2% begin near 0.13. The list shows a part of the results.
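Further: 384-well serum-free SaLSSA: MitoTracker Red CMXRos staining with saponin lysis, high-content imaging, treated-well particle count divided by plate-mean count of DMSO wells.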

These compounds were tested on Plasmodium falciparum NF54 stage V gametocytes (assay: viability index relative to DMSO control (fraction); higher = less gametocyte killing). Details: 1.25 µM, incubation time: 72 h.
For Cc1cc(C)[n+](C)n1CC(O)Cn1c2ccccc2c2ccccc21 (configuration not stated), the viability index was 0.789.
Work on CCN1CC=C2C(C#N)=C(N)C(C#N)(C#N)[C@H](c3ccc(C)s3)[C@H]2C1 yielded a viability index of 1.1.
Cc1cc(O)ccc1-c1cnc2ccccc2n1 was tested, and the viability index was 1.
For CCn1c(CSc2nc(C)cc(C)n2)nnc1SCC(N)=O, the viability index was 1.13.
Cn1cc(S(=O)(=O)c2cccc(Cl)c2)c(=O)c2cc(F)c(N3CCCCC3)cc21 showed a viability index of 0.843.
CCOc1ccc2nc(C)c(CN(C)Cc3ccccc3)c(O)c2c1 showed a viability index of 0.68.
For Oc1ccccc1CN1CCN(C(c2ccccc2)c2ccccc2)CC1, the viability index was 0.65.
CCN(CC)c1ccc(C=Cc2cccc[n+]2CC)cc1 showed a viability index of 0.851.
Work on COC(=O)CNC(c1ccccc1)c1cc(Br)ccc1NC(=O)C(Cc1ccccc1)NC(=O)OCc1ccccc1 (configuration not stated) yielded a viability index of 1.14.
For CC(=O)Nc1ccc2nc(C)sc2c1, the viability index was 0.764.
CCc1nc2nc(C)cc(Nc3ccc4c(c3)OCCO4)n2n1 was tested, and the viability index was 1.09.
With COc1ccc(CNC2CCN(c3cccc(NC(=O)C4CC4)c3)CC2)cc1 the viability index was 1.12.
With COc1ccc(-n2c(SCC(=O)Nc3cc(Cl)ccc3OC)nnc2-c2ccccc2)cc1 the viability index was 0.76.
Cc1cc(N2CCCCC2)nc(NCc2ccccc2)n1 gave a viability index of 0.743.
O=C(Cc1ccccc1)NCc1nnc(SCC(=O)N2N=C(c3cccs3)CC2c2ccc(F)cc2)n1Cc1ccccc1 (configuration not stated) was tested, and the viability index was 0.884.
With Cc1nc(N)sc1C(=O)NN=Cc1cccc(Br)c1 the viability index was 0.971.
Work on CCN1/C(=C/C=C/c2oc3ccc4ccccc4c3[n+]2CC)Oc2ccc3ccccc3c21 yielded a viability index of 0.4.
CCN(CC)CCNc1ccnc2cc(Cl)ccc12 showed a viability index of 0.947.
O=C(NC1CCN(Cc2ccccc2)CC1)c1cc([N+](=O)[O-])cc([N+](=O)[O-])c1 gave a viability index of 1.03.
COC(=O)[C@@H]1C[C@@H](NC(=O)c2ccc(OC)cc2OC)CN1Cc1cccc2ccccc12 gave a viability index of 1.08.
Compound O=C1C(=O)c2ncccc2-c2cccnc21 has a viability index of 0.995.
CCOc1ccc(NC(=O)c2ccc(I)o2)cc1 gave a viability index of 0.902.
COc1cc(NC2=CC(=O)C(=O)c3ccccc32)c(OC)cc1Cl showed a viability index of 0.668.
Work on Cc1cc(C)n(CC(O)Cn2c3ccc(Br)cc3c3cc(Br)ccc32)n1 (configuration not stated) yielded a viability index of 1.02.
In the case of CC(=O)Nc1nc(C)c(-c2csc(Nc3ccc(Cl)cc3)n2)s1, the viability index was 0.362.
Work on O=C(NC(=CC=Cc1ccccc1)C(=O)N1CCOCC1)c1ccccc1 yielded a viability index of 0.771.
In the case of CC[n+]1c(C=C2Sc3ccccc3N2CCO)ccc2cc(C)ccc21, the viability index was 0.865.
For N#CC(C#N)C(C(Sc1ccc([N+](=O)[O-])cc1)=C(O)c1ccccc1)c1cccs1 (configuration not stated), the viability index was 1.22.
In the case of O=C(Oc1ccccc1N1C(=O)C2C3C=CC(C3)C2C1=O)c1ccc([N+](=O)[O-])cc1 (configuration not stated), the viability index was 0.955.
CN(C)CCN(C)Cc1cc(Br)cs1 was tested, and the viability index was 1.08.
CCC(=O)N1c2ccccc2NC2=C(C(=O)CC(C)(C)C2)C1c1ccc2c(c1)OCO2 (configuration not stated) gave a viability index of 0.857.
CC1CN(C(=O)C(Cl)(Cl)Cl)C(C)CN1C(=O)C(Cl)(Cl)Cl (configuration not stated) showed a viability index of 0.8.
For COC(=O)C1=C(C)NC2=C(C(=O)CC(c3ccccc3Cl)C2)C1c1ccc(OC)c(OC)c1 (configuration not stated), the viability index was 0.845.
Cc1c(Cl)cccc1NC(=O)CCC(=O)NNC(=O)c1ccccc1 was tested, and the viability index was 0.9.
In the case of COc1cc(CNc2ccc(N3CCCCC3)cc2)cc(Cl)c1OCc1ccc(F)cc1, the viability index was 0.923.
N#Cc1ccc(N2CCCN(C(=S)NC3CCCC3)CC2)nc1 gave a viability index of 0.51.
For COc1cc2c(-c3cc(Br)ccc3O)nc3c(c(-c4ccccc4)nn3-c3ccccc3)c2cc1OC, the viability index was 0.633.
O=C1Nc2ccc(Br)cc2C12NCCc1c2[nH]c2ccccc12 (configuration not stated) was tested, and the viability index was 0.548.
For COc1cc(C=NNC(=O)Cc2nnc(N)s2)ccc1O, the viability index was 0.873.
Clc1ccccc1C[n+]1cc(-c2ccccc2)n2c1CCC2 was tested, and the viability index was 0.978.
For O=C(Nc1cccc(-c2nc3ccccc3[nH]2)c1)c1ccccc1[N+](=O)[O-], the viability index was 0.96.
Compound Fc1ccc(Nc2nc(NCC3CCCO3)c3ccccc3n2)cc1 (configuration not stated) has a viability index of 1.06.
CN1CCN(c2nc(Nc3ccc(O)cc3)nc3ccccc23)CC1 showed a viability index of 1.13.
CC(C)CC(=O)Nc1nnc(-c2ccc(Br)cc2)s1 showed a viability index of 0.957.
O=C(Nc1ccccc1C(=O)O)c1cccc(NC(=O)c2ccco2)c1 showed a viability index of 0.73.
CCN(CC)CCCN(Cc1cc2cc(OC)ccc2[nH]c1=O)C(=S)Nc1ccc(C)cc1 was tested, and the viability index was 0.817.
For Cc1c2c(cc3c1ccc1ccccc13)C[N+]1(CCCCC1)C2, the viability index was 0.801.
With Cc1ccc2cc(C)c(Nc3ccc(Cl)cc3)nc2c1 the viability index was 0.54.
For OC(COc1ccc(OCC(O)CN2CCN(CCOc3ccccc3)CC2)cc1)CN1CCN(CCOc2ccccc2)CC1 (configuration not stated), the viability index was 0.828.
COc1ccc(Nc2nc(NN=Cc3cccc(F)c3)nc(Nc3ccc([N+](=O)[O-])cc3)n2)cc1 was tested, and the viability index was 0.628.
With Cc1nc2ccc(Cl)cc2c(O)c1I the viability index was 0.834.
Compound Oc1ccc(-c2cccnc2)cc1CNC1C2CC3CC(C2)CC1C3 (configuration not stated) has a viability index of 0.519.
With O=C1[C@@H]2Cc3c([nH]c4ccccc34)C(CCc3ccccc3)N2C(=O)CN1CCc1c[nH]c2ccccc12 (some centres not stated) the viability index was 1.42.
Compound COc1ccc(C2CC(=O)C3=C(C2)NC(C)=C(C(=O)OC(C)C)C3c2ccccc2C)cc1OC (configuration not stated) has a viability index of 0.251.
Work on CCOC(=O)c1c(CNCCN(CC)CC)n(C)c2cc(Br)c(O)cc12 yielded a viability index of 0.827.
With COC(=O)COc1ccc(C=C2SC(=Nc3ccc(F)cc3)NC2=O)cc1 the viability index was 0.925.
CCOC(=O)C1=C(C)N(CCNc2ncc(C(F)(F)F)cc2Cl)C(=O)CC1 gave a viability index of 1.04.
Compound c1ccc(-c2csc(Nc3nc4cc5c(cc4s3)OCO5)n2)nc1 has a viability index of 0.273.
Work on Cc1ccccc1C[n+]1cc(-c2ccc(Cl)cc2)n2c1CCC2 yielded a viability index of 1.18.
With CN(CC(=O)NC(C)(C)C)S(=O)(=O)c1ccccc1 the viability index was 1.07.
With CCN1C(=Cc2sc3ccccc3[n+]2C)C=Cc2ccc(C)cc21 the viability index was 0.51.
CCOC(=O)C1=C(C)NC2=C(C(=O)C(C(=O)OC)C(C)C2)C1c1cc(Br)c(OC)c(OCC)c1 (configuration not stated) was tested, and the viability index was 0.839.
CC1CCN(C(=O)C2CCCN(S(=O)(=O)c3ccc4[nH]c(-c5ccccc5)nc4c3)C2)CC1 (configuration not stated) showed a viability index of 0.96.
Compound COc1ccc(C=NNc2cc(C)nc(-c3ccccc3)n2)cc1OC has a viability index of 0.86.
CCOC(=O)c1c(NC(=O)CSc2nnc(CNC(=O)c3cccs3)n2-c2cccc(Cl)c2)sc2c1CCCC2 was tested, and the viability index was 0.801.
Cc1c(Cl)cccc1NC(=S)N1CCCN(c2ccc(C(F)(F)F)cc2[N+](=O)[O-])CC1 gave a viability index of 0.398.
Cc1ccc(-c2cn3c([n+]2-c2ccc(C)cc2)CCCCC3)cc1 gave a viability index of 0.888.
COc1ccccc1NC(=O)CCCC(=O)OC(C)C(=O)c1ccccc1 (configuration not stated) gave a viability index of 1.
Compound CCCC(=O)N1c2ccc(OC)cc2-c2c(ssc2=S)C1(C)C has a viability index of 0.566.
O=C(C1CCN(c2nnnn2-c2ccccc2)CC1)N1CCc2ccccc2C1 was tested, and the viability index was 0.826.
With COc1ccc(CNCc2cc3c(-c4ccc(C)cc4)nn(-c4ccccc4)c3[nH]c2=O)cc1 the viability index was 0.551.
Work on CC[N+](CC)=c1scc(-c2ccc([N+](=O)[O-])cc2)s1 yielded a viability index of 0.668.
COc1cc(CN2CCN(c3ccccn3)CC2)cc(I)c1O gave a viability index of 0.935.
Compound CC1=C(C(=O)OC2CCCCC2)C(c2cccc([N+](=O)[O-])c2)C2=C(CCCC2=O)N1 (configuration not stated) has a viability index of 0.728.
COc1cccc(C2Sc3ccccc3NC3=C2C(=O)c2ccccc23)c1 (configuration not stated) was tested, and the viability index was 0.909.
With OC(CNc1cccc2ccccc12)Cn1c2ccc(Cl)cc2c2cc(Cl)ccc21 (configuration not stated) the viability index was 0.649.
For O=C1NN(c2ccc(Br)cc2)C(=O)C1=Cc1c(O)ccc2ccccc12, the viability index was 0.993.
For O=C(C[n+]1cc(-c2ccc(F)cc2)n2c1CCC2)Nc1ccc(Cl)cc1, the viability index was 1.44.
With CN(Cc1ccccc1)C(=O)CSc1nc(NCc2ccccc2)c2ccccc2n1 the viability index was 0.975.
In the case of CCOC(=O)N1CCN(C(=O)C(=O)NNC(=O)COc2ccc(Cl)cc2Br)CC1, the viability index was 1.08.
For O=C(COc1ccccc1Cl)OCc1cc(=O)n2nc(C3CC3)sc2n1, the viability index was 1.36.
Work on COc1ccc(C(OCCS(=O)(=O)CCO)(c2ccccc2)c2ccc(OC)cc2)cc1 yielded a viability index of 0.0248.
With Cc1ccc(-c2c[n+](Cc3ccc(Cl)cc3)c3n2CCC3)cc1 the viability index was 0.848.
CCN1C(=Cc2sc3cc(NC(C)=O)ccc3[n+]2CC)C=Cc2cc(C)ccc21 gave a viability index of 0.645.
c1ccc2c(c1)[nH]c1c(NCCN3CCCCC3)ncnc12 showed a viability index of 1.09.
In the case of CCN1CCN(c2cc(C)c(C#N)c3nc4ccccc4n23)CC1, the viability index was 0.844.
With CC(C)NC(=O)N1CCN(C(=O)C(Cc2c[nH]c3ccccc23)NC(=O)Nc2cccc(Cl)c2Cl)CC1C (configuration not stated) the viability index was 0.78.
Work on CCC1=NN2C(=N)/C(=C/c3cn(CCOc4ccccc4C(C)CC)c4ccccc34)C(=O)N=C2S1 (configuration not stated) yielded a viability index of 0.883.
Work on Oc1ccc(-c2cnccn2)cc1CNC1CCN(Cc2ccccc2)CC1 yielded a viability index of 1.3.
CCc1nnc2sc(-c3ccc(NC(=O)c4ccc(Br)o4)cc3)nn12 gave a viability index of 0.625.
O=C1c2ccc3c4c(ccc(c24)C(=O)N1CCCCO)C(=O)N(CCCCO)C3=O was tested, and the viability index was 0.423.
For Cc1ccc(NC(=O)c2ccc(NCCCN3CCC(C)CC3)c([N+](=O)[O-])c2)cc1F, the viability index was 1.18.
